Target: calmodulin immobilized on agarose beads (CaM-agarose) (UniProt P62157)
Assay: pull-down

B1: TRPV1Δ[…] mutant channel (receptor)
chain: not shown
fold decrease of binding against wild-type channels: ~10 fold

B2: TRPV1Δ205–222 mutant channel (receptor)
chain: not shown
fold decrease of binding against wild-type channels: ~10 fold

Source: paper PMC2217413 (The Journal of General Physiology, 2004)
